According to PubChem BioAssay (Tox21):
Inconclusive means that the source gave no clear call. Such entries were picked first, then a sample of the others. Potencies of inconclusive entries are doubtful fits and often do not repeat. Where a structure was tested more than once in an assay, its records may differ in their call. Activity calls are given as the source filed them. Unless noted, calls follow the shape of the full dose curve.

Target: Thyrotropin receptor (Homo sapiens) (UniProt P16473)
Experiment: qHTS assay to identify small molecule agonists of the thyroid stimulating hormone receptor (TSHR) signaling pathway (AID 1224843); also: nearly all actives have a fitted effect of over 45% in size
Details: TSHR-HEK293 cells, cAMP HTRF, agonist mode, 30 min; activation: at 92.4 µM (top of the series) unless noted
How it was run: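 TSHR-expressing HEK293 cells (800 per well) were exposed to compounds for 30 min at room temperature. cAMP was then detected by HTRF competition with cAMP-d2 and anti-cAMP cryptate, read after 1 h at room temperature. Fifteen concentrations, triplicate.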
% is scaled to controls: 0 for no effect and ±100 for the full control effect; potency is read from the fitted curve at half-maximal effect; tags tell the direction and shape of the fitted curve or compound fluorescence and quenching.

Sequence of UniProt P16473 (P16473 whole entry, looked up): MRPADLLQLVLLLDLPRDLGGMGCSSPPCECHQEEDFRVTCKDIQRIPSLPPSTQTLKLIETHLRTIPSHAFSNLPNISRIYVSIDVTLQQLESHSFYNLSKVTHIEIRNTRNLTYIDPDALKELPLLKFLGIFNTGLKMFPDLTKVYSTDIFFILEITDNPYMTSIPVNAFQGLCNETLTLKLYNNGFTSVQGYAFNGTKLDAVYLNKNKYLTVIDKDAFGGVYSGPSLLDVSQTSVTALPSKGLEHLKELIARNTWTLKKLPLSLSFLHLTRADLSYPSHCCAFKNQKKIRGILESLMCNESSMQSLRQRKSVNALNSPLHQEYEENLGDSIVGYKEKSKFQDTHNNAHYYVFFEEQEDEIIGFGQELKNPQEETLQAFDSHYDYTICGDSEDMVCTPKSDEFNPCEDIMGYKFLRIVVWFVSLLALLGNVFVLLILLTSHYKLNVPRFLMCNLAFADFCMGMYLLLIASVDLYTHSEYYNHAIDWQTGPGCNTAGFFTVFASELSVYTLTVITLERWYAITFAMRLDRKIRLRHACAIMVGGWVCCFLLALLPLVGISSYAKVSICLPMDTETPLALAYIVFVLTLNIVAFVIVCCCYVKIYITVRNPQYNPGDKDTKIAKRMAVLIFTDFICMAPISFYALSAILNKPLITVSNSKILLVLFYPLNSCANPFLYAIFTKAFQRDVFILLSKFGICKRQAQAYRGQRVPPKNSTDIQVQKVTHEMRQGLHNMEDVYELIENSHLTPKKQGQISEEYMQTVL

Row | SMILES | activation | Potency
1 | CN(C)CCC(c1ccc(Cl)cc1)c1ccccn1 (stereo not given) | inconclusive: -4.58% | 
2 | c1ccc(CN(Cc2ccccc2)Cc2ccccc2)cc1 |  | active: 17.2 µM
3 | CCN1CCCC1CNC(=O)c1cc(S(N)(=O)=O)ccc1OC (stereo not given) | inactive: 10.1% | 
4 | Oc1ccccc1C=NCc1ccccc1 | inactive: -8.51% [at 42.5 µM] | 
5 | CCC(C)OC(=O)N1CCCCC1CCO (stereo not given) | inconclusive: -3.12% | 
6 | Fc1ccc(Br)cc1 |  | active: 30.9 µM
7 | CCN(CC)CCOC(=O)C(c1ccccc1)C1CCCCC1 (stereo not given) | inconclusive: -21.6% [at 42.5 µM] | 
8 | CCN(CC)c1ccc(C(=O)c2ccccc2C(=O)O)c(O)c1 | inconclusive: -34% | 
9 | Cc1oc2c(NC(=O)c3c(Cl)cccc3Cl)cccc2c1C(C)(C)O |  | inconclusive: 48.6 µM [activator, partial curve, poor fit]

System: not listed separately
Experiment: qHTS assay to identify small molecule agonists of the hypoxia (HIF-1) signaling pathway - cell viability counter screen (AID 1224844); also: nearly all actives have a fitted effect of over 50% in size
Details: HRE-bla ME-180 viability, CellTiter-Glo luminescence, 17 h; series mostly up to 76.8 µM; activity change, negative = cytotoxicity: at the top concentration
How it was run: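 Cells (HRE-bla ME-180, 2,000 per well) sat 5 hrs at 37C, got compound for 17 hrs, were read for CCF4-AM FRET, and were finally lysed with CellTiter-Glo for a 30 min room-temperature luminescence read.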

Row | SMILES | Potency | activity change, negative = cytotoxicity
10 | CN(C)CCC(c1ccc(Cl)cc1)c1ccccn1 (stereo not given) | inconclusive: 61.8 µM [cytotoxic, single point] | 
11 | CCN1CCCC1CNC(=O)c1cc(S(N)(=O)=O)ccc1OC (stereo not given) | active: 17.4 µM | 
12 | COCCOCCOCCOCCOC | inconclusive: 43.6 µM [cytotoxic, partial curve] | 
13 | CC(=O)NO |  | inactive: -5.33% [at 35.3 µM]

System: not listed separately
Experiment: qHTS assay to identify small molecule agonists of H2AX (AID 1224845; active = well fitted activation curve with a large enough effect in the signal ratio in the repeat runs, not every such curve was filed as active; inconclusive = weak or mixed curves; the % refers to the signal ratio)
Details: CHO-K1 phospho-H2AX Ser139 HTRF, 3 h; activation (H2AX phosphorylation): at 154 µM (top of the series) unless noted
How it was run: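 Wild-type CHO-K1 cells plated overnight, then exposed 3 hr at 37C to compounds at 15 concentrations (0.76% DMSO). Lysed, then HTRF anti-pH2AX(S139)-cryptate/anti-H2AX-d2 detection after 24 hr at room temperature; emissions 665 and 620 nm.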

Row | SMILES | Potency | activation (H2AX phosphorylation)
14 | CN(C)CCC(c1ccc(Cl)cc1)c1ccccn1 (stereo not given) | inconclusive: 113 µM [activator, single point] | 
15 | C=C(C)C(=O)O[C@H]1C[C@@H]2CC[C@@]1(C)C2(C)C | active: 2.24 µM | 
16 | Cc1nc2ccc(CN(C)c3ccc(C(=O)N[C@@H](CCC(=O)O)C(=O)O)s3)cc2c(=O)[nH]1 | active: 0.619 µM | 
17 | CCCCCC/C=C/C=O |  | inactive: 0.996%
18 | CCN(CC)CCOC(=O)C(c1ccccc1)C1CCCCC1 (stereo not given) |  | inconclusive: 11.2% [at 70.9 µM]

System: not listed separately
Experiment: qHTS assay to identify small molecule agonists of the hypoxia (HIF-1) signaling pathway (AID 1224846; active = well fitted activation curve with a large enough effect in the signal ratio in the repeat runs, not every such curve was filed as active; inconclusive = weak or mixed curves; the % refers to the signal ratio)
Details: HRE-bla ME-180 cells, beta-lactamase ratio, 17 h; activation: at 76.8 µM (top of the series) unless noted
How it was run: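 A low-serum medium (0.5% dialyzed FBS) holding 2,000 HRE-bla ME-180 cells per well is preincubated for 5 hrs, dosed with compounds by pintool, and kept a further 17 hrs at 37C, 5% CO2 before CCF4-AM FRET detection of beta-lactamase.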

Row | SMILES | Potency | activation
19 | C=C(C)C(=O)O[C@H]1C[C@@H]2CC[C@@]1(C)C2(C)C | inconclusive: 2.17 µM [falling, full curve] | 
20 | COCCOCCOCCOCCOC | inconclusive: 48.9 µM [rising, partial curve, poor fit] | 
21 | Oc1ccccc1C=NCc1ccccc1 |  | inactive: -0.539% [at 35.5 µM]
22 | CC1CCC(=O)C1=O (stereo not given) |  | inactive: 0.166%
23 | Cc1oc2c(NC(=O)c3c(Cl)cccc3Cl)cccc2c1C(C)(C)O | active: 17.4 µM | 

System: not listed separately
Experiment: qHTS assay to identify small molecule agonists of H2AX - cell viability counter screen (AID 1224847); also: nearly all actives have a fitted effect of over 30% in size; as to activity change, negative = cytotoxicity: top concentration of the series differs between compounds
Details: CHO-K1 viability, CellTiter-Glo luminescence, 3 h; series mostly up to 154 µM; activity change, negative = cytotoxicity: at the top concentration
How it was run: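 CHO-K1 wt, 1000 cells/well, o/n 37C; cpds 15 conc, 3 h 37C, 0.76% DMSO; CellTiter-Glo, 30 min RT, luminescence.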

Row | SMILES | Potency | activity change, negative = cytotoxicity
24 | CN(C)CCC(c1ccc(Cl)cc1)c1ccccn1 (stereo not given) | inconclusive: 127 µM [cytotoxic, partial curve, poor fit] | 
25 | Nc1ccc(C(=O)OCCCOC(=O)c2ccc(N)cc2)cc1 | inconclusive: 113 µM [cytotoxic, single point] | 
26 | c1ccc(CN(Cc2ccccc2)Cc2ccccc2)cc1 | inconclusive: 89.7 µM [cytotoxic, partial curve] | 
27 | CN(C)CCCNCCC#N |  | inactive: 1.34%
28 | CC(C)=CCC/C(C)=C/CC/C(C)=C/CO | inconclusive: 89.8 µM [cytotoxic, single point] | 
29 | Cc1oc2c(NC(=O)c3c(Cl)cccc3Cl)cccc2c1C(C)(C)O | inconclusive: 101 µM [cytotoxic] | 
30 | CO[Si](CCCCl)(OC)OC | inconclusive: 125 µM [cytotoxic, single point] | 

System: not listed separately
Experiment: qHTS RealTime-Glo MT Cell Viability Assay in HepG2 cells - 24 hour (AID 1224867; active = well fitted curve in the direction sought with a large enough effect in the repeat runs; inconclusive = weak or mixed curves; inactive = no such curve, though single readings can be large; an effect the other way counts as inactive or inconclusive; also: nearly all actives have a fitted effect of over 50% in size)
Details: RealTime-Glo luminescence; series mostly up to 76.8 µM; activity change, negative = cytotoxicity: at the top concentration
How it was run: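 HepG2 suspension premixed with RealTime-Glo reagents is plated at 600 cells per well and left 5 h at 37 C/5% CO2. Compounds in DMSO then go in, and bioluminescence reflecting viable cell number is recorded over 40 h.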

Row | SMILES | activity change, negative = cytotoxicity | Potency
31 | Nc1ccc2ccccc2c1S(=O)(=O)O | inactive: 0.927% | 
32 | CCOC(=O)C(C)Oc1ccc(Oc2nc3ccc(Cl)cc3o2)cc1 (stereo not given) |  | inconclusive: 21.9 µM [falling, partial curve]
33 | CCN(CC)CCOC(=O)C(c1ccccc1)C1CCCCC1 (stereo not given) |  | inconclusive: 26.8 µM [falling, partial curve, poor fit]

System: not listed separately
Experiment: qHTS RealTime-Glo MT Cell Viability Assay in HEK293 cells - 32 hour (AID 1224868; active = well fitted curve in the direction sought with a large enough effect in the repeat runs; inconclusive = weak or mixed curves; inactive = no such curve, though single readings can be large; an effect the other way counts as inactive or inconclusive; also: nearly all actives have a fitted effect of over 50% in size; as to activity change, negative = cytotoxic: top concentration of the series differs between compounds)
Details: RealTime-Glo luminescence; series mostly up to 76.8 µM; activity change, negative = cytotoxic: at the top concentration
How it was run: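 Reads taken at 0, 8, 16, 24, 32 and 40 h from the same wells. HEK293 cells (600/well) carried RealTime-Glo reagents from seeding, with compound added after a 5 h settle at 37 C.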

Row | SMILES | Potency | activity change, negative = cytotoxic
34 | CN(C)CCC(c1ccc(Cl)cc1)c1ccccn1 (stereo not given) | inactive | 
35 | Nc1ccc(C(=O)OCCCOC(=O)c2ccc(N)cc2)cc1 | active: 43.6 µM | 
36 | CCN1CCCC1CNC(=O)c1cc(S(N)(=O)=O)ccc1OC (stereo not given) | inconclusive: 21.9 µM [cytotoxic, partial curve] | 
37 | C=C(C)C(=O)O[C@H]1C[C@@H]2CC[C@@]1(C)C2(C)C | active: 15.4 µM | 
38 | CCOC(=O)C(C)Oc1ccc(Oc2nc3ccc(Cl)cc3o2)cc1 (stereo not given) | active: 49 µM | 
39 | Cc1nc2ccc(CN(C)c3ccc(C(=O)N[C@@H](CCC(=O)O)C(=O)O)s3)cc2c(=O)[nH]1 |  | inactive: -11.5% [at 35.3 µM]
40 | CC(C)=CCC/C(C)=C/CC/C(C)=C/CO | inconclusive: 43.6 µM [cytotoxic, partial curve, poor fit] | 
41 | CCN(CC)CCOC(=O)C(c1ccccc1)C1CCCCC1 (stereo not given) | inconclusive: 26.8 µM [cytotoxic, single point] | 
42 | CCOC(=O)c1ccc(O)cc1 | inconclusive: 61.7 µM [cytotoxic, single point] | 
43 | CCN(CC)c1ccc(C(=O)c2ccccc2C(=O)O)c(O)c1 | inactive | 
44 | Cc1oc2c(NC(=O)c3c(Cl)cccc3Cl)cccc2c1C(C)(C)O | inconclusive: 27.5 µM [cytotoxic, partial curve] | 
45 | OCC(CBr)(CBr)CBr | inconclusive: 54.8 µM [cytotoxic, partial curve, poor fit] | 
